This note sets out measurements from paper PMC3690481, “OTULIN Antagonizes LUBAC Signaling by Specifically Hydrolyzing Met1-Linked Polyubiquitin” (Cell, 2013).

For this assay, the target named is T1, FlAsH-tagged Met1-diUb (UniProt P0CG48 partial chain; P0CG48 partial chain, Lumio Green (FlAsH) on the C-terminal WCCPGCC motif).
T1 construct: ubiquitin, distal moiety, residues 1-76, joined by Gly76 in a peptide bond to Met1 of the proximal moiety; ubiquitin, proximal moiety; a C-terminal WCCPGCC motif replaces aa 72-76, so that residues 1-71 are left; Construct described in Ye et al., 2011; Chain: Ub(1-76)-Ub(1-71)-WCCPGCC; also called FlAsH-tagged Met1-diUb WT; Met1-linked diUb; source: expressed from pET17 plasmid, purified as …
Nature of the assay: fluorescence polarisation; FlAsH-tagged diUb fixed (10 μl of 100 nM plus 10 μl protein), OTULIN C129A variants serially diluted; 20 mM Tris pH 7.4, 100 mM NaCl, 5 mM β-mercaptoethanol, 0.1 mg/ml BSA; one-site binding model; triplicate. As to conditions: both partners purified. (In general: Polarisation of emitted light reports the rotation of a fluorescent probe.)

Values joined by “and” are separate entries in the source; they are usually repeats but may differ in a detail not shown here. Equal entries are not always repeated.

B1: OTULIN ([…]) C129A (enzyme)
chain: not shown
notes: also called full-length OTULIN C129A; OTULIN C129A; source: E. coli Rosetta2 (DE3) pLacI, purified (Ni2+ resin, 3C protease, SEC)
One may read the Kd as the equilibrium constant for the complex coming apart. Take B1: the Kd was 178 nM and < 112 nM.

B2: OTULIN C129A L259E (enzyme)
chain: not shown
notes: source: E. coli Rosetta2 (DE3) pLacI, purified (Ni2+ resin, 3C protease, SEC)
With B2, the binding result is reported as “binds”.

B3: OTULIN C129A E314R (enzyme)
chain: not shown
notes: as for B2
B3: the binding result was “binds”.

B4: OTULIN C129A W96A (enzyme)
chain: not shown
notes: as for B2
As for B4, the binding result is “binds”.
